Source: PubChem BioAssay AID1508642 (National Center for Advancing Translational Sciences (NCATS), 2021)
Hit rate of the full screen: of about 43,000 compounds, about 200 (0.47%) were called active. Inconclusive results (about 12%) are left out. Calls follow the shape of the dose curve; as a rule, active = well fitted cell-killing curve with a large enough effect; inconclusive = small, poorly fitted or top-dose-only effect, or effect the other way; inactive = flat fitted curve, though single readings scatter. Some of the results follow.

assay: Cell viability qHTS assay in S16 Pmp22-F2sN cells; conditions: S16 Pmp22-F2sN Schwann cells (luciferase reporters placed in the Pmp22 gene) viability, CellTiter-Glo, 24 h; series mostly up to 57.5 µM; activity change, negative = cytotoxicity: at the top concentration; also: nearly all actives have a fitted effect of over 65% in size
How it was run: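 Seed 500-1,000 S16 Pmp22-F2sN cells per well in phenol-red-free DMEM with 10% heat-inactivated FBS; pin-add 23 nL compound; incubate 24 h at 37C; add CellTiter-Glo, wait 15 min protected from light; read luminescence.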
% is scaled to controls: 0 for no effect and ±100 for the full control effect.

| Compound | activity change, negative = cytotoxicity |
| --- | --- |
| CCOc1ccc(CC(=O)Nc2c(C(=O)Nc3ccc(OC)cc3OC)oc3ccccc23)cc1 | inactive: 1.83% |
| NS(=O)(=O)c1ccc(CCNC(=O)c2ccc3nc(CCc4ccccc4)oc3c2)cc1 | inactive: 5.29% |
| Cc1cc2c(cc1S(=O)(=O)N(C)CC(=O)Nc1ccc(C#N)cc1)OCC(=O)N2 | inactive: 20.9% |
| CCOC(=O)c1c(S(=O)(=O)NCC(=O)Nc2ccc(C)c(N(C)C)c2)c(C)n(C)c1C | inactive: 13% |
| COc1ccc(-c2nc3cc(C)ccn3c2NC(=O)c2ccc(F)cc2)cc1 | inactive: 20.5% |
| COc1ccc(CCNC(=O)c2cccc(-n3cnc4cccnc43)c2C)cc1OC | inactive: 9.54% |
| CC(CNC(=O)CN1C(=O)COc2ccc(S(=O)(=O)N3CCCCCC3)cc21)c1ccccc1 (configuration not stated) | inactive: 6.64% |
| CCCCNC(=O)c1nn(-c2ccc(C)cc2)c(=O)n(C)c1=O | inactive: 14.2% |
| Cc1ccc(Cl)cc1NC(=O)C1CCCN(S(=O)(=O)c2cccc3cccnc23)C1 (configuration not stated) | inactive: -17.6% |
| CCC(=O)N1CCc2cc(Br)cc(S(=O)(=O)N3CCCC(C(=O)Nc4cccc(C)c4C)C3)c21 (configuration not stated) | inactive: 4.5% |
| Cc1ccccc1NC(=O)c1c(NC(=O)c2ccco2)sc2c1CCC(C(C)(C)C)C2 (configuration not stated) | inactive: -2.47% |
| COc1ccccc1CNC(=O)CSc1nc2nc(C)c(Cc3ccccc3Cl)c(C)n2n1 | inactive: -22.4% |
| COc1ccc(N2C(=O)CS(=O)(=O)C23C(=O)N(Cc2ccc(F)cc2)c2ccc(C)cc23)cc1 (configuration not stated) | inactive: -5.1% |
| CCOC(=O)c1c(S(=O)(=O)N2CCCC(C(=O)Nc3cccc(C#N)c3)C2)c(C)n(C)c1C (configuration not stated) | inactive: 2.17% |
| Cc1ccccc1CNC(=O)c1cccc(NC(=O)N2CCSc3ncccc32)c1 | inactive: 6.91% |
| CC(Oc1ccccc1)C(=O)Nc1ccc(OCc2cc(=O)n3ccsc3n2)cc1 (configuration not stated) | inactive: 1.73% |
| O=C(Cn1c(=O)c2ccccc2n(CC(=O)Nc2ccc(Cl)cc2)c1=O)NCCc1ccccc1 | inactive: -21.3% |
| CCCCN(C)CCNC(=O)C1CCCN(S(=O)(=O)c2ccc3c(c2)oc(=O)n3C)C1 (configuration not stated) | inactive: -7.5% |
| Cc1c(CCNC(=O)Cc2ccc(F)cc2)sc2nc(-c3ccc(F)cc3)nn12 | inactive: -20.8% |
| CCc1ccccc1NC(=O)Cn1c(=O)n(CCCS(=O)(=O)C2CCCCC2)c(=O)c2ccccc21 | inactive: 3.7% |
| COc1ccc(C(=O)Oc2c(Sc3ccc(Cl)cc3)c(C)nn2C(C)(C)C)cc1OC | inactive: -3.54% |
| COc1ccc(NC(=O)CCCn2c(=O)c3cccn3c3ccccc32)c(OC)c1 | inactive: -18.8% |
| O=C(NCCc1csc(-c2ccc(C(F)(F)F)cc2)n1)C(=O)Nc1cc(F)ccc1F | inactive: 11.3% |
| CCOC(=O)c1[nH]c(C)c(CCC(=O)Nc2ccc(C(C)=O)cc2)c1C | inactive: 0.522% |

| Compound | activity change, negative = cytotoxicity |
| --- | --- |
| Cc1ccccc1NS(=O)(=O)c1nnc(NC(=O)c2ccc(Cl)cc2)s1 | inactive: 0.906% |
| Cc1cccc(CNS(=O)(=O)c2csc(C(N)=O)c2)c1 | inactive: -6.76% |
| CCOc1cccc(CNCCNC(=O)c2nonc2N)c1 | inactive: 3.58% |
| O=C1C(c2cccc(Br)c2)N(CCc2ccccc2)C(=O)CN1C1CCCCC1 (configuration not stated) | inactive: -2.3% |
| CCOc1ccc(C(=O)Nc2cccc(OCc3cc(=O)n4ccccc4n3)c2)cc1 | inactive: -1.78% |
| CCOC(=O)c1cnc2c(C)cc(C)cc2c1NCCc1ccc(OC)c(OC)c1 | inactive: 4.22% |
| Cc1ccc(Cl)cc1-n1c(=O)c2sc3ccccc3c2n(CC(=O)NC2CCCCC2)c1=O | inactive: -6.73% |
| COc1ccc(CNC(=O)Cn2c(=O)oc3cc(S(=O)(=O)N4CCC(C)CC4)ccc32)cc1 | inactive: -20.1% |
| Cc1cccc(C)c1NC(=O)c1nc(S(C)(=O)=O)ncc1N(Cc1ccc(F)cc1)Cc1ccco1 | inactive: 2.04% |
| O=c1c2sc3ccccc3c2n(Cc2ccccc2Cl)c(=O)n1Cc1ccccc1 | inactive: -4.98% |
| Cc1ccc(C)n1-c1c(C(=O)NCC(C)c2ccccc2)sc2ncccc12 (configuration not stated) | inactive: -19.9% |
| Cc1cc(-c2ccc(C)c(S(=O)(=O)Nc3ccccc3C(F)(F)F)c2)on1 | inactive: -2.94% |
| COc1ccc(C(=O)N(Cc2ccc(N(C)C)cc2)Cc2ccco2)cc1Cl | inactive: 6.64% |
| COc1ccccc1CNC(=O)C1CCN(S(=O)(=O)c2c(C)noc2/C=C/c2c(C)cc(C)cc2C)CC1 | inactive: 4.51% |
| O=C(Nc1ccc2nc(SCCOc3ccccc3)sc2c1)c1cccs1 | inactive: 1.6% |
| CN1CCN(C(=O)c2ccc3c(c2)N(Cc2cccc(Cl)c2)C(=O)c2ccccc2S3(=O)=O)CC1 | inactive: 1.49% |
| COc1cccc(CNC(=O)CSc2ncc3c(n2)-c2cc(Cl)ccc2N(C)S3(=O)=O)c1 | inactive: 4.9% |
| CCc1ccc(NC(=O)c2ccc(F)c(S(=O)(=O)NC3CCCCCC3)c2)cc1 | inactive: -21.2% |
| Cc1coc2c(C)c3oc(=O)c(CC(=O)NCc4ccccc4)c(C)c3cc12 | inactive: -13.6% |
| Cc1c(Cl)cccc1NC(=O)CN1C(=O)COc2ccc(S(=O)(=O)N3CCCCCC3)cc21 | inactive: -1.4% |
| O=C(CCC1CCCC1)N1CCc2c([nH]c3ccccc23)C1c1ccc(Cl)cc1 (configuration not stated) | inactive: -11% |
| Cc1ccc(-n2nnc(-c3nsc(NC(=O)c4ccccc4)n3)c2C)cc1 | inactive: -0.56% |
| CCc1cccc(C)c1NS(=O)(=O)c1cc(-c2cc(C)no2)ccc1C | inactive: -3.24% |
